This passage reports binding results from article PMC11443453.

The chains behind the UniProt entries cited, without tags or fusion partners.
UniProt Q99814: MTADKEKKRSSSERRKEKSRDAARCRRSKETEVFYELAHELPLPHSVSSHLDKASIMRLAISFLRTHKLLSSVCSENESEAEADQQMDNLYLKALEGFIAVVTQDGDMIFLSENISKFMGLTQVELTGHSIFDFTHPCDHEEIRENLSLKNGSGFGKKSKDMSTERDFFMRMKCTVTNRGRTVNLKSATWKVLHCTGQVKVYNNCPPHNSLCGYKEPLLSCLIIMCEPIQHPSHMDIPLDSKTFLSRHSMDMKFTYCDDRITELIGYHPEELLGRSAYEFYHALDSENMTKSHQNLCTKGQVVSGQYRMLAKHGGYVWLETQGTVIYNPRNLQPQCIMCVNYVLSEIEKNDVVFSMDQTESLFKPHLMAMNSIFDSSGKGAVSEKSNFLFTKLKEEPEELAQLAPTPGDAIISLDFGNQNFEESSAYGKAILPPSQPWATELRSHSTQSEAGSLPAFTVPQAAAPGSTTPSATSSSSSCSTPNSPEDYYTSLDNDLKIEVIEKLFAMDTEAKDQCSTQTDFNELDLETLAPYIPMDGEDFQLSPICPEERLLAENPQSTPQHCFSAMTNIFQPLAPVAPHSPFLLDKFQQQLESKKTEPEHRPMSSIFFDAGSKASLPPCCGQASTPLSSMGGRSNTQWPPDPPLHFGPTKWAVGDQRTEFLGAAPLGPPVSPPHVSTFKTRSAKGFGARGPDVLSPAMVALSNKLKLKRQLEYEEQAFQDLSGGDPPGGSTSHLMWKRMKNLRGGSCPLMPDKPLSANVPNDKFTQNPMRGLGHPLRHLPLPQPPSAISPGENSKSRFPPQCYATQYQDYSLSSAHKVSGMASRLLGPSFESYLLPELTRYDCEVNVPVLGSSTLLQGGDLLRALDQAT
UniProt Q16665: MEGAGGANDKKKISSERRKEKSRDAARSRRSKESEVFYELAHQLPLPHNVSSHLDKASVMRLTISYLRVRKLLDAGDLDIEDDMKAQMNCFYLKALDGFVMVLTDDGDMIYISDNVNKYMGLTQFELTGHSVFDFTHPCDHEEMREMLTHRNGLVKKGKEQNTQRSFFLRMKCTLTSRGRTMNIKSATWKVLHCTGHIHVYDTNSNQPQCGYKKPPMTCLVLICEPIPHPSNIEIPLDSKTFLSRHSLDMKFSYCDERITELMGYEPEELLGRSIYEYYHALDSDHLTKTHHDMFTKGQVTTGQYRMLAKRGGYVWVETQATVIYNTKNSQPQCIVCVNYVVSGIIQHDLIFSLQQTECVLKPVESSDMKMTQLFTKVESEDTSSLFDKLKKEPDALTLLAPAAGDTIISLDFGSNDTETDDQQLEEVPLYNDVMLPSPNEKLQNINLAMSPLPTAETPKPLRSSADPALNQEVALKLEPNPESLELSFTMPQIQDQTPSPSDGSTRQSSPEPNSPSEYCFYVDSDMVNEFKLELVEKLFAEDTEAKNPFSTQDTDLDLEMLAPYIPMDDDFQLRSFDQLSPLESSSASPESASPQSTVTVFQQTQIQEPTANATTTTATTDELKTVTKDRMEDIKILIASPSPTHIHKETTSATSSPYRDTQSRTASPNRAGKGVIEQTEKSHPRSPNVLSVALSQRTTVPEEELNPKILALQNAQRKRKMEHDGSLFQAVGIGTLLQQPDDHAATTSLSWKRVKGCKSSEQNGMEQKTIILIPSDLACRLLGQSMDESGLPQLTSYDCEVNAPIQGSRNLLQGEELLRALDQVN

Where a chain is given by its changes, count along the chain named. These are yes or no findings as the source states them, for the method shown. Binding seen in cells or lysates may run through a third protein. Some entries that bind do so weakly or less than the wild type. For some assays here: Tags and fused reporters may be left off the sequences shown.

Assay [1] deals with T1, Coactivator-associated arginine methyltransferase 1 (CARM1), endogenous (human (endogenous in MDA-MB-231, Hs 578T, MDA-MB-468)) (UniProt Q86X55).
T1 sequence: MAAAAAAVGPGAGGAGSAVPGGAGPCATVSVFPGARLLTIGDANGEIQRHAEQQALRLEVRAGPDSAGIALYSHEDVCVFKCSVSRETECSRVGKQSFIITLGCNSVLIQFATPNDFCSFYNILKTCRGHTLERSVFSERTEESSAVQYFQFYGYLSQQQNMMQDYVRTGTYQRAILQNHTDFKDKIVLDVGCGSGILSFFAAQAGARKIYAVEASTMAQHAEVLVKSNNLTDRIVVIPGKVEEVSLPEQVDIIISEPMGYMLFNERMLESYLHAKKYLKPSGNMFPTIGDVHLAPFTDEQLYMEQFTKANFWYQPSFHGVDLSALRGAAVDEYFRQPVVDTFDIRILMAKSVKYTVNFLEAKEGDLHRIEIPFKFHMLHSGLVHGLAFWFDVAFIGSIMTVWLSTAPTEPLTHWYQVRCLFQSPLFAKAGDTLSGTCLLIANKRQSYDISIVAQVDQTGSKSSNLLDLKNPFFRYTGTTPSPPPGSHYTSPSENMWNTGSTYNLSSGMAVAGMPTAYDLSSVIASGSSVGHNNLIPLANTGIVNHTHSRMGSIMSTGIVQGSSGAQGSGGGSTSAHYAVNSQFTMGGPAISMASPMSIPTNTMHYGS
The assay can be described thus: co-IP; endogenous proteins; 500 μg cell extract (RIPA buffer) with specific antibody or normal IgG overnight at 4°C, protein A/G Sepharose beads; cells under normoxia or hypoxia (1% O2 for 24 h).

The target in assay [2] is T2, FLAG-tagged CARM1 (FLAG-CARM1) (UniProt Q86X55).
T2 sequence: T1 sequence
The assay can be described thus: co-IP; whole cell extracts of MDA-MB-231 cells stably expressing FLAG vector or FLAG-CARM1 on an anti-FLAG affinity column, washed, eluted with FLAG peptide; purified fractions Western blotted for HIF1A and FLAG.

Assay [3] addresses T3, CARM1 with EVH1 domain deletion (141–608 aa) (UniProt Q86X55).
T3 sequence: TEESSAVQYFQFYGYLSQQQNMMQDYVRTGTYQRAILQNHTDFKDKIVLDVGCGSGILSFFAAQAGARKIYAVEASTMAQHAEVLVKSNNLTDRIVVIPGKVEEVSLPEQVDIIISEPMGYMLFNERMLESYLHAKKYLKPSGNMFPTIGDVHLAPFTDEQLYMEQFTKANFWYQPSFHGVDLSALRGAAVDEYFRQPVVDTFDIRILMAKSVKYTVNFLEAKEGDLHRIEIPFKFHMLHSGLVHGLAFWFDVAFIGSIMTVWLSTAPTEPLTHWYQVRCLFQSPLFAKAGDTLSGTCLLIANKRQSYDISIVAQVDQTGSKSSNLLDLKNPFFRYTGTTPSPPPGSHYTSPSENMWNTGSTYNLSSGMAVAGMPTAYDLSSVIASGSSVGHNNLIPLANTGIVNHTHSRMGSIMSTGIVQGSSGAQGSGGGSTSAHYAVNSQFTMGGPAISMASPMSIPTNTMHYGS
The assay can be described thus: pull-down; about 5 μg GST fusion protein on glutathione-sepharose beads with 5–8 μL in vitro transcribed/translated product; 75 mmol/L NaCl, 50 mmol/L HEPES pH 7.9, 4°C, 2 h; Western blot; only the target purified.

Assay [4] addresses T4, GST-fused CARM1 (UniProt Q86X55).
T4 sequence: T1 sequence
Described as above.

The target in assay [5] is T5, GST-fused CARM1 EVH1 domain (1–140 aa) (UniProt Q86X55).
T5 sequence: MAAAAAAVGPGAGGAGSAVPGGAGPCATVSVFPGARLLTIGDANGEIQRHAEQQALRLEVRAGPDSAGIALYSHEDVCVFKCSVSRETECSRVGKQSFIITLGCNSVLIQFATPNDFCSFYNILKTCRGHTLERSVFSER
The description is as above.

Assay [6] addresses T6, GST-fused CARM1 catalytic core (141–480 aa) (UniProt Q86X55).
T6 sequence: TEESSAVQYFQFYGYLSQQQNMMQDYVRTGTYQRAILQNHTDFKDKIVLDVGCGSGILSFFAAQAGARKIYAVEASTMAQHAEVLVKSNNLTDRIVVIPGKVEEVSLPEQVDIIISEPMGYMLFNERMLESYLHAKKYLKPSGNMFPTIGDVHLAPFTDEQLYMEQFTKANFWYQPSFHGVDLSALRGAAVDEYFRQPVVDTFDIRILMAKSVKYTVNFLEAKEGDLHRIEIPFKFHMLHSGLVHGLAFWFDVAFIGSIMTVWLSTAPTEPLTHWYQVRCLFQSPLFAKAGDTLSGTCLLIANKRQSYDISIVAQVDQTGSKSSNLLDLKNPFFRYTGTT
The description is as above.

Assay [7] addresses T7, methyltransferase inactive CARM1-R168A mutant (UniProt Q86X55).
T7 sequence: T1 sequence with R168A
The assay is described as above.

Take “HIF2α, endogenous (from UniProt Q99814 1-870)”: the binding result in assay [1] is on record as “no binding”.
Same read-out and setting: to “Hypoxia-inducible factor-1 subunit alpha (HIF1A), endogenous (from UniProt Q16665 1-826)” belongs “binds”.
Turning to “hypoxia-inducible factor-1 subunit alpha (HIF1A) (from UniProt Q16665 1-826)”, in assay [2], the binding entry is reported as “binds”.
For “in vitro transcribed/translated HIF1A (from UniProt Q16665 1-826)”, the binding entry is listed as “no binding” in assay [3]; “binds” in assay [4]; “binds” in assay [5]; “no binding” in assay [6]; “binds” in assay [7].
